Data on 19 molecules can be found in the supplement of paper PMC10369915.

B1: FOXI1_Y126_S129L (peptide)
chain: LVRPPYSYLAL
B2: FREM2_Y2061 (peptide)
chain: DAGTDYVGISR
B3: FN1_Y106_YF (peptide)
chain: FTGNTYRVGDT
B4: FLT4_Y1333 (peptide)
chain: GGQVFYNSEYG
B5: FOXG1_Y186_M191R (peptide)
chain: KPPFSYNALIR
B6: FOXL2_Y186_G187D_YF (peptide)
chain: AGADGYDFLAP
B7: FLT1_Y199_E201Q (peptide)
chain: ISNATYKQIGL
B8: FLNC_Y2625 (peptide)
chain: SRGSSYSSIPK
B9: FOXP3_Y342_P339A (peptide)
chain: RPAFTYATLIR
B10: FLNC_Y1602_YF (peptide)
chain: TFTVSYLPDMS
B11: FLT4_Y1231_YF (peptide)
chain: LAARFYNWVSF
B12: FLT4_Y853 (peptide)
chain: GRVLGYGAFGK
B13: FOXL2_Y215_S217C (peptide)
chain: PSPMPYACCQM
B14: FOXF1_Y331 (peptide)
chain: QGIPRYHSQSP
B15: FLNC_Y1602 (peptide)
chain: TYTVSYLPDMS
B16: FOXG1_Y246_R244C (peptide)
chain: KVPCHYDDPGK
B17: FN1_Y101_N104S_YF (peptide)
chain: TCFDKYTGSTF
B18: FLT4_Y1337 (peptide)
chain: FYNSEYGELSE
B19: FLVCR2_Y325 (peptide)
chain: NAGAFYALSTL

Some of the results follow. Cut-off read from the data, not from the text of the source: active = 3.2 or more and inactive = the rest. Only a few entries rise above the background.
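Note: displayed peptides selected on beads carrying the immobilized SH2 domain, with library peptides lacking any tyrosine serving as negative controls.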

The target in the first assay is SHP2 C-SH2 domain E139D. Nature of the assay: enrichment score (SH2-bound / input frequency) (ratio); bacterial display of known human phosphotyrosine sites (pTyr-Var adds point mutants) read by sequencing; higher = stronger binding; tyrosines were phosphorylated by kinases first. As to conditions: peptide library: pTyr-Var.
In the case of B1, the enrichment score was inactive: 0.947.
Still for that read-out and setting: under B2 stands inactive: 0.482; under B3, inactive: 0.797.
On the same count and under the same terms, under B4 stands inactive: 1.3.
On the same count and under the same terms, the figure for B5 is inactive: 1.1.
B6: the enrichment score is inactive: 0.718.
In the case of B7, the enrichment score was inactive: 0.468.
On the same count and under the same terms, the figure for B8 is inactive: 0.466; for B9 it is inactive: 1; for B10 it is inactive: 1.3.
Still for that read-out and setting: the figure for B11 is inactive: 2.82; for B12 it is inactive: 0.969; for B13 it is inactive: 1.13.
The same measure, in the same setting: under B14 stands inactive: 0.889; under B15, inactive: 0.966; under B16, inactive: 1.08.
As for B17, the enrichment score is inactive: 0.581.
B18: the enrichment score was inactive: 0.751.
Same read-out and setting: under B19 stands inactive: 0.887.

The next assay concerns the target SHP2 C-SH2 domain wild-type. The description is as above. As to conditions: peptide library: pTyr-Var.
As to B1, the enrichment score was inactive: 1.45.
Still for that read-out and setting: under B2 stands inactive: 0.399; under B3, inactive: 1.09; under B4, inactive: 0.909.
Same read-out and setting: under B5 stands inactive: 1.03.
The same measure, in the same setting: the figure for B6 is inactive: 0.742; for B7 it is inactive: 0.435.
On to B8, for which the enrichment score was inactive: 0.367.
As to B9, the enrichment score was inactive: 2.55.
Same read-out and setting: the figure for B10 is inactive: 1.03; for B11 it is inactive: 2.61; for B12 it is inactive: 0.93.
Still for that read-out and setting: under B13 stands inactive: 1.18.
Consider B14, for which the enrichment score was inactive: 0.668.
The same measure, in the same setting: the figure for B15 is inactive: 1.11.
Still for that read-out and setting: the figure for B16 is inactive: 1.09; for B17 it is inactive: 0.678.
B18: the enrichment score was inactive: 0.677.
As to B19, the enrichment score was inactive: 0.725.

For another assay, the target named is SHP2 N-SH2 domain L43F. Described as above. As to conditions: peptide library: pTyr-Var.
For B1, the enrichment score was inactive: 1.31.
In the case of B2, the enrichment score is inactive: 0.429.
For B3, the enrichment score was inactive: 0.832.
On the same count and under the same terms, under B4 stands inactive: 1.12; under B5, inactive: 1.09; under B6, inactive: 0.631.
On the same count and under the same terms, under B7 stands inactive: 0.44; under B8, inactive: 0.432.
Same read-out and setting: under B9 stands inactive: 0.822; under B10, inactive: 1.25.
B11: the enrichment score is inactive: 2.42.
For the molecule B12, the enrichment score was inactive: 0.863.
With B13, the enrichment score is inactive: 1.
Same read-out and setting: under B14 stands inactive: 0.813.
Same read-out and setting: the figure for B15 is inactive: 1.03; for B16 it is inactive: 1.18.
Same read-out and setting: the figure for B17 is inactive: 0.584; for B18 it is inactive: 0.702; for B19 it is inactive: 0.711.

A further assay addresses SHP2 N-SH2 domain T42A. The description is as above. As to conditions: peptide library: pTyr-Var.
Turning to B1, the enrichment score is active: 5.04.
On the same count and under the same terms, the figure for B2 is inactive: 0.362; for B3 it is inactive: 0.645.
Same read-out and setting: under B4 stands inactive: 0.963; under B5, inactive: 1.09.
With B6, the enrichment score is inactive: 0.522.
Consider B7, for which the enrichment score was inactive: 0.491.
The same measure, in the same setting: under B8 stands inactive: 0.474.
The same measure, in the same setting: under B9 stands inactive: 2.37; under B10, inactive: 1.13; under B11, inactive: 2.95.
With B12, the enrichment score was inactive: 0.835.
On the same count and under the same terms, under B13 stands inactive: 0.977; under B14, inactive: 0.758.
On the same count and under the same terms, the figure for B15 is inactive: 1.17.
The same measure, in the same setting: under B16 stands inactive: 0.884; under B17, inactive: 0.596.
Turning to B18, the enrichment score was inactive: 0.857.
Consider B19, for which the enrichment score is inactive: 0.752.

Another assay addresses SHP2 N-SH2 domain T52S. The description is as above. As to conditions: peptide library: pTyr-Var.
Take B1: the enrichment score is inactive: 1.32.
The same measure, in the same setting: the figure for B2 is inactive: 0.562; for B3 it is inactive: 0.797.
For B4, the enrichment score is inactive: 0.868.
Still for that read-out and setting: under B5 stands inactive: 1.24; under B6, inactive: 0.644.
On the same count and under the same terms, under B7 stands inactive: 0.412; under B8, inactive: 0.448; under B9, inactive: 1.15.
On the same count and under the same terms, the figure for B10 is inactive: 1.14; for B11 it is inactive: 2.76; for B12 it is inactive: 0.945.
Regarding B13, the enrichment score was inactive: 0.811.
The same measure, in the same setting: the figure for B14 is inactive: 0.73; for B15 it is inactive: 0.929.
As for B16, the enrichment score was inactive: 0.807.
B17: the enrichment score is inactive: 0.673.
Same read-out and setting: the figure for B18 is inactive: 0.773; for B19 it is inactive: 0.779.

A further assay has as its target SHP2 N-SH2 domain wild-type. The description is as above. As to conditions: peptide library: pTyr-Var.
For the molecule B1, the enrichment score is inactive: 0.865.
Same read-out and setting: under B2 stands inactive: 0.498; under B3, inactive: 0.73.
With B4, the enrichment score is inactive: 0.989.
Same read-out and setting: under B5 stands inactive: 1.33; under B6, inactive: 0.787; under B7, inactive: 0.543.
On the same count and under the same terms, the figure for B8 is inactive: 0.471.
On the same count and under the same terms, under B9 stands inactive: 0.646; under B10, inactive: 1.07; under B11, inactive: 2.54.
In the case of B12, the enrichment score was inactive: 1.07.
In the case of B13, the enrichment score is inactive: 1.06.
For B14, the enrichment score is inactive: 0.536.
Same read-out and setting: under B15 stands inactive: 0.9.
The same measure, in the same setting: the figure for B16 is inactive: 1.07.
On the same count and under the same terms, the figure for B17 is inactive: 0.915; for B18 it is inactive: 1.11; for B19 it is inactive: 0.777.
